Assay results reported in the supplement of paper PMC8748497.
This is one part of the list.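 The calls were made as follows: active = fold change of at least 2 over DMSO control; inactive = below 2-fold.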 Many values rest on one well or one pass, so single values are uncertain.

system: HEK293 ARE/NRF2-luciferase reporter; experiment: ARE/NRF2 luciferase reporter activity, fold change over DMSO control; higher = stronger NRF2/ARE reporter activation; settings: 10 µM; 24 h

Row | Compound | ARE/NRF2 luciferase reporter activity
1 | c1ccc(CN(CC2=NCCN2)c2ccccc2)cc1 | inactive: 0.587
2 | C[C@]12C=CC(=O)C=C1CC[C@@H]1[C@@H]2[C@@H](O)C[C@@]2(C)[C@H]1CC[C@]2(O)C(=O)COP(=O)(O)O | inactive: 0.923
3 | COc1ccc(C(C)=O)c(OC)c1 | inactive: 0.742
4 | COc1ccc2oc(-c3ccccc3)c(OC)c(=O)c2c1 | active: 2.95
5 | CC(=O)N(CC(O)CO)c1c(I)c(C(=O)NCCO)c(I)c(C(=O)NCC(O)CO)c1I (configuration not stated) | inactive: 0.914
6 | CCN(CC)CCc1nc(-c2ccccc2)no1 | inactive: 0.0244
7 | COc1ccc(CCC(=O)c2c(O)cc(O[C@@H]3O[C@H](CO)[C@@H](O)[C@H](O)[C@H]3O[C@@H]3O[C@@H](C)[C@H](O)[C@@H](O)[C@H]3O)cc2O)cc1O | inactive: 0.909
8 | CC(=O)Nc1cc2ccccc2oc1=O | inactive: 1.07
9 | CC[C@H]1OC(=O)[C@H](C)[C@@H](O[C@H]2C[C@@](C)(OC)[C@@H](O)[C@H](C)O2)[C@H](C)[C@@H](O[C@@H]2O[C@H](C)C[C@H](N(C)C)[C@H]2O)[C@](C)(O)C[C@@H](C)CN(C)[C@H](C)[C@@H](O)[C@]1(C)O | inactive: 0.919
10 | COc1c(-c2coc3cc4c(cc3c2=O)CC(OC(C)=O)C(C)(C)O4)ccc2c1C=CC(C)(C)O2 (configuration not stated) | inactive: 0.509
11 | COc1ccc(-c2cc(=O)c3cc(OC)ccc3o2)cc1 | inactive: 1.06
12 | O=C(CCCN1CCC(O)(c2ccc(Br)cc2)CC1)c1ccc(F)cc1 | inactive: 0.922
